The text below walks through data of the supplement of paper PMC10670038.

Counter-ions that a name gives are not always drawn. ± gives the standard deviation of the averaged measurements. In all, about 2,000 compounds were measured (“relative cell viability vs DMSO, compound alone”: median about 1.1, lowest 2% from about 0.29 on). The list shows a part of the results.

This assay concerns TE10. In words: relative cell viability vs DMSO, compound alone (fraction); TE10 is an esophageal squamous carcinoma line; higher = less cytotoxic. The conditions noted are these: 2 µM; 48 h. As for the experimental part:
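TE10 ESCC cells (1,000/well, 384-well plates) were treated with Selleck bioactive library compounds at 2 uM alone for 48 h. Viability was read by CellTiter-Glo and expressed relative to DMSO wells. Two technical replicates (A, B).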
In the case of `Cc1cc(Nc2nc(N[C@@H](C)c3ncc(F)cn3)ncc2Cl)[nH]n1`, the relative cell viability came out at 0.871 ± 0.069.
Next, `COC[C@H](NC(=O)c1cnc(C)s1)C(=O)N[C@@H](COC)C(=O)N[C@@H](Cc1ccccc1)C(=O)[C@@]1(C)CO1` [Oprozomib (ONX 0912)]: 0.0586 ± 0.0043.
Under `CC(CCC(=O)NCCS(=O)(=O)O)C1CCC2C3C(O)CC4CC(O)CCC4(C)C3CCC12C` (stereo not drawn) [Sodium Tauroursodeoxycholate (TUDC)] stands 1.07 ± 0.044; under `CCN(c1cc(-c2ccc(CN3CCOCC3)cc2)cc(C(=O)NCc2c(C)cc(C)[nH]c2=O)c1C)C1CCOCC1`, 1.117 ± 0.011; under `Cn1c([N+](=O)[O-])cnc1COC(N)=O` [Ronidazole], 1.12 ± 0.089.
Under `O=C(O)CC1CC(c2ccccc2)=NO1` (stereo not drawn) stands 1.08 ± 0.077; under `COc1ccc(C[C@@H]2c3cc(OC)c(OC)cc3CC[N@+]2(C)CCC(=O)OCCCCCOC(=O)CC[N@@+]2(C)CCc3cc(OC)c(OC)cc3[C@H]2Cc2ccc(OC)c(OC)c2)cc1OC` [Cisatracurium Besylate], 1.06 ± 0.044; under `CCOC(=O)c1c(C)n(C)c2ccc(O)cc12` [Mecarbinate], 0.967 ± 0.011.
In turn, `Fc1cc(-c2cccc3ncc(-c4cnn(C5CCNCC5)c4)nc23)cc(F)c1CN1CCOCC1` displayed a relative cell viability of 0.975 ± 0.054.
Next, `CC(N)C12CC3CC(CC(C3)C1)C2` (stereo not drawn) [Rimantadine]: 1.03 ± 0.045; `CN(CCOc1ccc(CC2SC(=O)NC2=O)cc1)c1ccccn1` (stereo not drawn) [Rosiglitazone HCl]: 1.13 ± 0.016.
Next, `CN(CCOc1ccc(CC2SC(=O)NC2=O)cc1)c1ccccn1` (stereo not drawn) [Rosiglitazone maleate]: 1.16 ± 0.021; `CN(CCOc1ccc(CC2SC(=O)NC2=O)cc1)c1ccccn1` (stereo not drawn) [Rosiglitazone]: 0.968 ± 0.043.
Under `O=C(/C=C/n1cnc(-c2cc(C(F)(F)F)cc(C(F)(F)F)c2)n1)N1CC(F)(F)C1` stands 0.473 ± 0.06.
With `NCc1c[nH]c(=S)n1[C@@H]1CCc2c(F)cc(F)cc2C1` [(R)-Nepicastat HCl], the relative cell viability came out at 1.08 ± 0.04.
Next, `Cc1ccc2c(Cl)cc(Cl)c(O)c2n1` [Chlorquinaldol]: 0.785 ± 0.025; `N=C(N)N/N=C/c1c(Cl)cccc1Cl` [Guanabenz Acetate]: 1.17 ± 0.058; `Brc1c(NC2=NCCN2)ccc2nccnc12` [Brimonidine Tartrate]: 1.06 ± 0.014.
Under `CN(C)CCOC(=O)COc1ccc(Cl)cc1` [Meclofenoxate (Centrophenoxine) HCl] stands 1.19 ± 0.012; under `CNC(CC(=O)O)C(=O)O` [NMDA (N-Methyl-D-aspartic acid)], 1.16 ± 0.023; under `Cc1cc(Nc2ccc(NC(=O)c3ccc(Nc4ccnc5ccccc45)cc3)cc2)nc(N)n1`, 1.21 ± 0.028.
Next, `C[C@]12CC[C@@H]3c4ccc(O)cc4CC[C@H]3[C@@H]1CC[C@@H]2OC(=O)CCC1CCCC1` [Estradiol Cypionate]: 1.13 ± 0.085; `CCS(=O)(=O)Nc1ccc2[nH]c(O)c(C(=Nc3ccc(CN4CCCCC4)cc3)c3ccccc3)c2c1` [Hesperadin]: 0.423 ± 0.0064; `CC(C)N(CCCNC(=O)Nc1ccc(C(C)(C)C)cc1)C[C@H]1O[C@@H](n2ccc3c(N)ncnc32)[C@H](O)[C@@H]1O`: 0.952 ± 0.14.
In turn, `C[C@@H]1[C@H](O)[C@@H](C)/C=C/C=C/C=C/C=C/C=C/C=C/C=C/[C@H](O[C@@H]2O[C@H](C)[C@@H](O)[C@H](N)[C@@H]2O)C[C@@H]2O[C@](O)(C[C@@H](O)C[C@@H](O)[C@H](O)CC[C@@H](O)C[C@@H](O)CC(=O)O[C@H]1C)C[C@H](O)[C@H]2C(=O)O` [Amphotericin B] showed a relative cell viability of 1.16 ± 0.049.
Next, `CC(C)/N=c1\cc2n(-c3ccc(Cl)cc3)c3ccccc3nc-2cc1Nc1ccc(Cl)cc1` [Clofazimine]: 0.929 ± 0.062; `O=C1Cc2cc(CCN3CCN(c4nsc5ccccc45)CC3)c(Cl)cc2N1` [Ziprasidone HCl]: 1.15 ± 0.031; `O=C(NOCCO)c1ccc2cncn2c1Nc1ccc(I)cc1F`: 0.865 ± 0.032.
Under `CCOc1cc(C(=O)N2CCC(N3CCN(C)CC3)CC2)ccc1Nc1ncc2c(n1)N(C1CCCC1)c1ccccc1C(=O)N2C` stands 0.991 ± 0.054; under `O=c1cc(-c2ccc(O)c(O)c2)oc2cc(O)cc(O)c12` [Luteolin], 0.9823 ± 0.0049; under `O=C(Cc1ccc(-c2ccc(OCCN3CCOCC3)cc2)cn1)NCc1ccccc1`, 0.816 ± 0.05.
Take `Nc1ncn([C@H]2C[C@H](O)[C@@H](CO)O2)c(=O)n1` [Decitabine]: the relative cell viability worked out at 1.339 ± 0.0036.
Under `CCCN(CCc1cccs1)[C@H]1CCc2c(O)cccc2C1` [Rotigotine] stands 1.09 ± 0.023.
Molecule `Cc1cc(=O)n(-c2ccccc2)n1C` [Antipyrine] displayed a relative cell viability of 1.07 ± 0.031.
Next, `Clc1ccc(COC(Cn2ccnc2)c2ccc(Cl)cc2Cl)c(Cl)c1` (stereo not drawn) [Miconazole Nitrate]: 1.01 ± 0.012.
Under `Clc1ccc(COC(Cn2ccnc2)c2ccc(Cl)cc2Cl)c(Cl)c1` (stereo not drawn) [Miconazole] stands 1.02 ± 0.037.
As for `CC(C)(C)C[C@@H]1N[C@@H](C(=O)N[C@H]2CC[C@H](O)CC2)[C@H](c2cccc(Cl)c2F)[C@]12C(=O)Nc1cc(Cl)ccc12`, the relative cell viability was determined as 1.14 ± 0.045.
Under `O=c1c2ccccc2oc2ccccc12` [Xanthone] stands 1.139 ± 0.01; under `CO[C@H]1O[C@@H]2O[C@@]3(C)CC[C@H]4[C@H](C)CC[C@@H]([C@H]1C)[C@@]24OO3` [Artemether], 1.07 ± 0.02.
Under `Cn1ncc(Cl)c1-c1cc(C(=O)N[C@H](CN)Cc2cccc(F)c2)sc1Cl` stands 0.757 ± 0.01.
Under `NC12CC3CC(CC(C3)C1)C2` [Amantadine HCl] stands 1.149 ± 0.0057.
Take `CC1CCc2c(N3CCC(O)CC3)c(F)cc3c(=O)c(C(=O)O)cn1c23` (stereo not drawn) [Nadifloxacin]: the relative cell viability stood at 0.991 ± 0.091.
Under `CO[C@@H](C(=O)N1Cc2[nH]nc(NC(=O)c3ccc(N4CCN(C)CC4)cc3)c2C1)c1ccccc1` stands 1.07 ± 0.051; under `CN1CCN(C2=Nc3cc(Cl)ccc3Nc3ccccc32)CC1` [Clozapine], 1.12 ± 0.049; under `Cc1c(Cc2ccc3ccccc3n2)c2cc(F)ccc2n1CC(=O)O`, 1.08 ± 0.054.
For `C=CC(=O)N1CCC(Oc2cc3c(Nc4ccc(Cl)c(Cl)c4F)ncnc3cc2OC)CC1` [Poziotinib (HM781-36B)], the relative cell viability turned out to be 1.12 ± 0.03.
Next, `CCN(CCO)CCCOc1ccc2c(Nc3cc(CC(=O)Nc4cccc(F)c4)[nH]n3)ncnc2c1` [Barasertib (AZD1152-HQPA)]: 1.035 ± 0.0066; `Cc1ccc(NC(=O)c2ccc(CN3CC[C@H](N(C)C)C3)c(C(F)(F)F)c2)cc1Nc1nccc(-c2cncnc2)n1` [Bafetinib (INNO-406)]: 1.151 ± 0.0038.
